Measurements as given in the supplement of paper PMC7826260.
Some of the results follow. Viral Rep nickase domains cut single-stranded DNA in vitro (1 h at 37 °C, 3 µM enzyme); the outer parts of the 90-letter strands are left off. Numbers give uncut DNA relative to the enzyme-free pool, as log2; the lower, the more was cut; hits are not called. Shares of all reads are compared; where an enzyme cuts many sequences, the uncut ones exceed 0.

tested on: T1, Rep nickase domain of tomato golden mosaic virus; assay: uncleaved DNA left, log2 of reads against the no-enzyme library (log2 ratio); higher = less cleavage (more negative = more Rep cleavage of the k-mer); sequences stand for … in CTCGTCCG…ACCGGAGA
T1 sequence (Rep 1-124, printed without the tag): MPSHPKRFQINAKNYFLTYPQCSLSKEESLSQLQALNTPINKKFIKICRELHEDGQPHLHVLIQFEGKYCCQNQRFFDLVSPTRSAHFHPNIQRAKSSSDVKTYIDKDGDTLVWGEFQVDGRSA
Experimental: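 A pool of 90-nt single-stranded DNAs with seven random bases just before the constant AC of the nick site (name = the seven bases) was cut by 3 µM recombinant His6-SUMO-tagged Rep nickase domain (300 nM DNA, 50 mM HEPES pH 8.0, 50 mM NaCl, 1 mM MnCl2, 1 h, 37 °C, three replicates). Uncut DNA was amplified and sequenced.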

Row | Sequence | uncleaved DNA left (log2)
1 | TGCCTGC | 0.107
2 | GGAGGAG | 0.0891
3 | GCTCGCC | -0.085
4 | CAAGTAG | -0.0141
5 | CACATCT | 0.00309
6 | GTTGGCT | 0.198
7 | GTTTTCA | 0.136
8 | GGTGTCC | -0.21
9 | CCTCGAC | -0.0151
10 | AGCCAGA | -0.0829
11 | AAGTGCA | -0.00314
12 | ATTCGGA | 0.0201
13 | GGTCAGC | 0.186
14 | TACATCT | -0.154
15 | TTATTCT | -1.18
16 | GATTTTC | 0.0179
17 | GCATCTC | -0.03
18 | ATAAGGG | 0.143
19 | TCATGGG | 0.0745
20 | GACGTAA | -0.0787

Row | Sequence | uncleaved DNA left (log2)
21 | TGCACAA | -0.035
22 | TCCGGTA | 0.0119
23 | ACCAGCA | 0.000932
24 | GACAGGG | 0.0744
25 | CTAGAGC | -0.0436
26 | ACAGACC | -0.0171
27 | TCGCAGC | -0.0459
28 | TGTTAAT | 0.0362
29 | TACTTTT | -1.87
30 | ATCCCGT | 0.0189
31 | AACGCAT | -0.0898
32 | CAACAAT | 0.158
33 | TAGATTC | -0.00819
34 | TCCCTAG | -0.154
35 | TTCAGGC | 0.0377
36 | AGCGGGT | 0.0593
37 | ATACAGT | 0.0254
38 | GGACTTA | -0.155
39 | GTCAAGT | 0.0988
40 | TAGACGA | -0.0679
